Data: PubChem BioAssay AID1508624 (National Center for Advancing Translational Sciences (NCATS), 2021)
Screen size: about 48,000 compounds; about 120 (0.25%) were called active. Not shown: some 4% with an inconclusive outcome. Calls follow the shape of the dose curve; as a rule, active = well fitted activation curve with a large enough effect; inconclusive = small, poorly fitted or top-dose-only effect, or another doubt; inactive = no such curve, though single readings can be large or run the other way. The list shows a part of the results.

Assay: Primary qHTS for Identification of Small Molecule Activators of Huntingtin-Antisense Promoter Activity; also: nearly all actives have a fitted effect of over 55% in size
Details: HEK293 HTT-AS promoter firefly luciferase reporter (activity 0% = vehicle and -100% = no light), 24 h; series mostly up to 57.5 µM; activity change, positive = activation: at the top concentration
Outline: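 Firefly luciferase readout (Dual-Glo, 10 min RT) after 24 h, 37 °C compound exposure (final up to 57.5 uM) of HEK293 reporter cells cultured 24 h beforehand; PTC124 at 50 uM final as control inhibitor; activity scaled vehicle 0%, zero RLU -100%.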

Activity change, positive = activation, inactive:
CCc1nn2c(=O)cc(COc3ccc(/C=C(\C#N)C(=O)Nc4ccc(F)cc4)cc3OC)nc2s1 0.157%, CC(C)COc1ccc(C(=O)Nc2cc3nn(-c4ccccc4)nc3cc2Cl)cc1 12.2%, O=S(=O)(NCC(c1cccs1)S(=O)(=O)c1ccccc1)c1ccc(F)cc1 (configuration not stated) -16.5%, CCn1c2ccccc2c2nnc(SCC(=O)Nc3ccccc3OC)nc21 -14%, CCOC(=O)c1ccc(NC(=O)C2CCN(S(=O)(=O)c3ccc4c(c3)CCCC(=O)N4)CC2)cc1 -35.3%, CCOc1ccccc1CNC(=O)c1cc(-c2ccc(Cl)s2)nc2ccccc12 -15.8%, Cc1ccccc1-c1nn2c(=O)cc(CN3CCN(C(=O)/C=C/c4ccccc4)CC3)nc2s1 -2.95%, CCc1ccc(NC(=O)Cn2c(=O)n(CCC(=O)N3CCc4ccccc4C3)c(=O)c3ccccc32)cc1 -10.8%, Cc1cc(C)cc(NC(=O)N2CCC3(CC2)Oc2ccccc2C(=O)N3Cc2ccccc2F)c1 -17.7%, CC1CCc2c(sc3nc(-c4cc5cc(Br)ccc5oc4=O)[nH]c(=O)c23)C1 (configuration not stated) -1.59%, O=C(CCS(=O)(=O)c1cccc2nonc12)Nc1c(F)cccc1F -2.51%, CCOC(=O)c1ccc(CN(Cc2ccc(F)cc2)S(=O)(=O)c2ccc(F)c(C(=O)Nc3ccc(Cl)cc3F)c2)cc1 -8.78%, O=S(=O)(Nc1ccc(Br)cc1F)c1ccc2nc(-c3ccccc3)[nH]c2c1 -32.3%, COc1cccc(N2CCN(C(=O)c3cccc(-n4c(C)nc5cccnc54)c3)CC2)c1 -26.9%, COc1ccc(CCn2c(=O)c3cccnc3n(CC(=O)Nc3ccc(C)c(F)c3)c2=O)cc1OC 4.79%, C=Cc1ccc(Cn2c(C(=O)O)c(CNC3CCCCC3)c3ccc(C)cc32)cc1 -7.51%, COc1ccc(-c2nnc(SCC(=O)Nc3cccc(C(F)(F)F)c3)nc2-c2ccc(OC)cc2)cc1 -7.75%, O=C1CC(c2nnc(Cc3ccc(F)cc3)o2)CN1c1ccccc1 (configuration not stated) -14%, Cc1cccc(NC(=O)CSc2cn(CC(=O)N3CCC(C)CC3)c3ccccc23)c1C 1.29%, COc1ccccc1CNC(=O)c1cc(S(=O)(=O)N2CCCCCC2)cn1C -18.8%, Fc1ccccc1-n1ncc2c1ncn1nc(COc3ccc(Cl)cc3)nc21 -2.61%, COc1ccc(OC)c(NC(=O)c2ccc3nc(C(C)C)oc3c2)c1 2.69%, Cc1cccc(N2CCN(S(=O)(=O)c3nnc(NC(=O)c4ccc(Cl)cc4)s3)CC2)c1 -12.9%, CCc1cccc(NC(=O)c2cc(S(=O)(=O)N3CCCCCC3)cn2C)c1 -22.1%, COc1ccccc1N1CCN(C(=O)c2cc3c(s2)-c2ccccc2OC3)CC1 -15.5%, Cc1ccccc1CN1CCC(CNC(=O)c2cc3ccc4cccnc4c3[nH]2)CC1 -18.9%, CC(C)(C)C(=O)NC1CC(=O)N(c2ccc3c(c2)OCCO3)C1 (configuration not stated) 0.3%, COc1ccccc1NC(=O)c1sc2nc(C)c(C(=O)Nc3ccc(Cl)cc3)c(-c3ccc(Br)cc3)c2c1N -29.4%, CCc1ccc2oc(C(=O)Nc3nc(-c4ccc(F)cc4)ns3)c(C)c2c1 1.71%, Cc1cc2c(n1-c1ccc(C(=O)NCCc3ccc(Cl)cc3)cc1)CCC(C)C2 (configuration not stated) 6.32%, COc1ccc(-c2cc(C(F)(F)F)n3nc(C(=O)OC(C)C)cc3n2)cc1 -1.1%, Cc1c(C2=CCN(S(=O)(=O)c3ccc(Cl)cc3)CC2)c2ccccc2n1CC(=O)N1CCCC1 -27.6%, CCOc1ccccc1CNC(=O)C1CCN(c2nnc(C)c3c(C)n(-c4ccc(C)cc4)nc23)CC1 -40.7%, CCC1CCCCN1C(=O)CSc1n[nH]c(-c2ccccc2)n1 (configuration not stated) 27.3%, COc1ccc(N(Cc2nnc3n2CCCCC3)C(=O)Nc2ccc(Cl)cc2)cc1Cl -8.12%, CC(=O)Nc1ccc(Nc2nc3ccc(Cl)cc3n3cnnc23)cc1 0.569%, CNC(=O)c1ccc(-c2nc(CN3CCc4ccccc43)c(C)o2)cc1 -13.5%, Cc1cccc(OCC(=O)Nc2ccc(OCc3cc(=O)n4cc(C)ccc4n3)cc2)c1 -0.0748%, Cc1c(Cl)cccc1NC(=O)C(C)n1nc(C)c2c(C)n(-c3ccccc3)nc2c1=O (configuration not stated) -20.8%, C=C1C(=O)OC2C=C(C)CCC=C(C)CCC12 (configuration not stated) -12.2%, COc1ccc(S(=O)(=O)N(Cc2nc(-c3ccccc3)no2)C2CCCCC2)cc1 -22.8%, Cc1cc(O)c2ccccc2c1O -83.6%, Fc1ccc(Nc2nc(SCc3ccc(Cl)cc3)nc3ccccc23)cc1 -31.8%, Cc1ccccc1C(=O)NCC(c1ccc(N(C)C)cc1)N1CCCC1 (configuration not stated) 18.4%, Cc1cccc(-c2noc(-c3cccnc3NCc3ccccc3Cl)n2)c1 10.6%, O=S(=O)(NCC(c1ccco1)S(=O)(=O)c1ccccc1)c1cc(F)ccc1F (configuration not stated) -0.974%, CNC(=O)C1CCC(Cn2c(=O)c3sccc3n(CC(=O)N3CCCCC3C)c2=O)CC1 (configuration not stated) -5.49%, COc1cc(C2CC(=O)N(c3ccc(C)c(Cl)c3)C3=C2C(=O)OC3)cc(OC)c1OC (configuration not stated) -19.2%, O=C(CCS(=O)(=O)c1ccc(Br)s1)Nc1c(F)cccc1F -23.2%, CCc1ccccc1N1CC(c2nc3ccccc3n2CCCCOc2ccccc2OC)CC1=O (configuration not stated) -18.9%, Cc1noc(Cn2c(=O)c3cc4c(cc3n(CC(=O)Nc3ccc(C(C)C)cc3)c2=O)OCO4)n1 -23.5%, CC(C)NC(=O)Cc1csc2nc(-c3ccccc3)cn12 22.5%, COc1cccc(-c2cc(C(F)(F)F)n3nc(-c4ccc(C)cc4)cc3n2)c1 -22.9%, CNS(=O)(=O)c1ccc(NC(=O)c2nc3nc(C)cc(C(F)F)n3n2)cc1 -20.5%, CCN(c1ccccc1)S(=O)(=O)c1ccc(NC(=O)c2cc(=O)c3c(C)cc(C)cc3o2)cc1 0.0695%, O=C1CCc2cc(S(=O)(=O)NC(C(=O)Nc3ccc(F)cc3)c3ccccc3)ccc2N1 (configuration not stated) 8.68%, Cc1nc2nc(CNC(=O)c3cccc(F)c3)nn2c(C)c1CCC(=O)Nc1ccc(F)cc1 4.4%, CCOc1ccc(NS(=O)(=O)c2ccc3[nH]cc(C(=O)N4CCCC4)c(=O)c3c2)cc1 -20.8%, CC(C)c1cnc2c(c1SCc1ccc([N+](=O)[O-])cc1)c(=O)n(C)c(=O)n2C -1.88%, O=c1n(Cc2ccccc2)nc2n1-c1ccccc1OC2 11.3%, O=c1ccc2ccccc2o1 2.46%, COc1cc2c(cc1OC)C(COc1ccc(F)cc1)N(C(=O)C(C)C)CC2 (configuration not stated) -29.7%, CCn1cnc2c(=O)oc3ccc(S(=O)(=O)N4CCN(c5cc(C)ccc5C)CC4)cc3c21 -8.98%, O=S(=O)(NCCc1ccc(Cl)cc1)c1ccc(N2CCCCS2(=O)=O)cc1 -14.9%, COc1ccc(C2=C(C)C(=O)N(Cc3ccc(C(=O)NCc4ccccc4C)cc3)S2(=O)=O)cc1 -32.2%, CCOc1ccc(NC(=O)CCn2c(-c3ccc(F)cc3)cc(C(C)=O)c2C)cc1 -22.1%, Cc1ccc(C2C=C(c3ccc(Cl)cc3)Nc3nc(NC(=O)CCC(=O)O)nn32)cc1 (configuration not stated) -2.54%, O=C(CSc1nnc(-c2ccccc2)c(-c2ccccc2)n1)Nc1ccccc1Cl -28.2%, CCCOc1ccc(C(=O)Nc2cc3nn(-c4ccc(CC)cc4)nc3cc2C)cc1 18%, COc1ccccc1OCCCn1c(-c2ccc(Cl)cc2)nc2ccccc2c1=O -5.71%, CCC(C)Cn1c(COc2ccc(OC)cc2)nc2ccccc21 (configuration not stated) 10.6%, Nc1ccc(C(=O)Nc2cccc(-c3nc(N4CCOCC4)c4oc5ncccc5c4n3)c2)cn1 -28.1%, CCOC(=O)c1ccc(NC(=O)Nc2cccc(OCc3cc(=O)n4ccc(C)cc4n3)c2)cc1 14.6%, COc1ccc(NC(=O)CCc2nc3cccnc3n2Cc2cccs2)c(OC)c1 -17.4%, CCC(=O)N[C@H]1CC[C@H](C(=O)N(C)c2ccc(-c3nc4ccccc4o3)cc2)C1 -13%, CCCCOc1ccc(NC(=O)CSc2ccc(C(=O)O)cn2)cc1 27.7%, Cc1cc(N2CCN(c3ccccc3F)CC2)n2cnnc2n1 -35.3%, O=C(NCc1ccc(F)cc1)c1ccc2c(c1)N(Cc1ccc(F)cc1Cl)C(=O)CS2 -12.9%, CCCSc1ncc(Cl)c(C(=O)Nc2ccc(OC)cc2OC)n1 -11.4%, O=C(NCCn1cc(SCc2ccc(C(F)(F)F)cc2)c2ccccc21)c1ccccc1F -41.9%, COc1cccc(CNC(=O)CCn2ccc3cc(S(=O)(=O)N4CCCC4)ccc32)c1 -2.46%, Cc1ccc(CN2C(=O)SC(Nc3ccccc3)C2=O)cc1 (configuration not stated) -13.4%, O=C(C1CCN(S(=O)(=O)c2cccc3nonc23)CC1)N1CCN(c2ccc(F)cc2)CC1 -30.3%, CCOc1ccc(CNC(=O)CCS(=O)(=O)c2cc3c4c(c2)CCN4C(=O)CC3)cc1 -11.8%, CCOC(=O)c1c(C)oc2ncnc(Nc3ccc(CC)cc3)c12 3.94%, CC1CCN(C(=O)CN2CCSc3ccc(S(=O)(=O)N(C)C)cc32)CC1 -21.2%, CN(C)CCCN1c2ccccc2Sc2ccc(Cl)cc21 -34.9%, Cc1cc(C)cc(OC(=O)c2cc(-c3ccc4c(c3)OCCO4)on2)c1 6.55%, COc1ccc(/C=C/c2nc(-c3ccccc3O)n(-c3ccccc3)n2)cc1OC -19.5%, CCC(=O)N1CCc2cc(S(=O)(=O)NCCC(=O)NC(C)c3ccccc3)ccc21 (configuration not stated) 10.7%, CC(=O)c1ccc(NC(=O)C(Cc2ccccc2)NS(=O)(=O)c2ccc3c(c2)CCC(=O)N3)cc1 (configuration not stated) -7.25%, CCOC(=O)Cc1c(C)nc2c(-c3ccc(OC)c(OC)c3)c(C)nn2c1C -19.4%, CCOC(=O)CC(NC(=O)c1cc2cc(OC)ccc2oc1=O)c1ccc(OC)cc1 (configuration not stated) -3.18%, Cc1cccc(C(=O)Nc2nnc(S(=O)(=O)N3CCC(C)CC3)s2)c1 -11.9%, O=C(CCC(=O)N1CC2CCCN2c2ccccc21)NCc1ccccc1F (configuration not stated) -3.47%, Cc1cccc(OCC(=O)OCc2cc(=O)n3nc(C4CC4)sc3n2)c1 8.41%, O=C(NCc1ccccc1)c1cccc(Nc2nc3ccccc3n3nnnc23)c1 -3.48%
